Results taken from the antibiotic and cytotoxicity screens of Wong et al. (2023).
The list shows a part of the results.

Columns and labels:
HSkMC = human skeletal muscle cells; test: cytotoxicity call (relative viability < 0.9); settings: 10 µM
HepG2 = test: cytotoxicity call (relative viability < 0.9); settings: 10 µM
S. aureus RN4220 = test: growth inhibition call (relative growth <= 0.2); settings: 50 µM

SMILES | cytotoxicity call (HSkMC) | cytotoxicity call (HepG2) | growth inhibition call (S. aureus RN4220)
C[C@H](CO)N1C[C@H](C)[C@H](CN(C)S(=O)(=O)c2cn(C)cn2)Oc2c(NS(=O)(=O)c3ccc(F)cc3)cccc2C1=O | inactive | inactive | inactive
CC(C)NC(=O)N(C)C[C@H]1Oc2ccc(NC(=O)CCN3CCOCC3)cc2CC(=O)N([C@@H](C)CO)C[C@@H]1C | inactive | inactive | inactive
C[C@H]1CCCCO[C@@H](CN(C)C(=O)Nc2ccc(F)cc2)[C@@H](C)CN([C@@H](C)CO)C(=O)c2cc(NC(=O)Nc3ccccc3)ccc2O1 | inactive | inactive | inactive
COc1ccc(NC(=O)N(C)C[C@H]2Oc3c(NC(=O)c4ccc(-c5nccs5)cc4)cccc3C(=O)N([C@H](C)CO)C[C@H]2C)cc1 | inactive | inactive | inactive
CC(C)NC(=O)N(C)C[C@H]1Oc2ccc(NC(=O)C3CCCCC3)cc2C(=O)N([C@H](C)CO)C[C@@H]1C | inactive | inactive | inactive
C[C@H]1CN([C@@H](C)CO)C(=O)c2c(c3ccccc3n2C)-c2ccccc2CO[C@H]1CN(C)C(=O)Nc1cccc(Cl)c1Cl | inactive | inactive | inactive
CN1CCC(=C2c3ccccc3C=Cc3ccccc32)CC1.Cl | inactive | active | inactive
C[C@H]1CN([C@@H](C)CO)C(=O)c2ccccc2-c2ccccc2CO[C@@H]1CN(C)Cc1ccccc1C(F)(F)F | active | inactive | inactive
C[C@@H]1CN([C@H](C)CO)C(=O)CCCn2nncc2CO[C@@H]1CN(C)S(=O)(=O)c1ccc(C#N)cc1 | inactive | inactive | inactive
C[C@@H]1CN([C@H](C)CO)C(=O)c2cc(NC(=O)CCC(F)(F)F)ccc2O[C@@H](C)CCCCO[C@H]1CN(C)C(=O)CCC(F)(F)F | inactive | inactive | inactive
C[C@@H]1CN([C@@H](C)CO)S(=O)(=O)c2ccc(C#CCN(C)C)cc2O[C@@H]1CN(C)S(C)(=O)=O | inactive | inactive | inactive
COc1ccc(S(=O)(=O)Nc2cccc3c2O[C@@H](CN(C)C(=O)Nc2cccc4ccccc24)[C@H](C)CN([C@@H](C)CO)C3=O)cc1 | inactive | active | inactive
C[C@@H]1CN([C@@H](C)CO)C(=O)c2cc(C#Cc3ccccc3F)cnc2O[C@@H]1CN(C)S(=O)(=O)c1ccccc1F | inactive | inactive | inactive
COc1ccc([Si](C)(C)[C@H]2[C@H](CCOC(=O)NCCCCCC(=O)NO)O[C@]3(C(=O)N(Cc4ccccc4)c4ccc(NC(=O)[C@@H](C)OC(=O)NCCCCCC(=O)NO)cc43)[C@@H]2C)cc1 | inactive | inactive | inactive
C[C@]12C(=O)N(CCC(=O)O)C(=O)[C@H]1[C@@H]1C=C[C@@H]2C1 | inactive | inactive | inactive
CC(C)NC(=O)N[C@@H]1C=C[C@@H](CC(=O)NCCCN(C)C)O[C@H]1CO | inactive | inactive | inactive
NC(=O)N1Cc2nccn2C[C@H](Cn2ncccc2=O)C1 | inactive | inactive | inactive
C[C@@H]1CN([C@H](C)CO)C(=O)c2cc(NC(=O)C3CCCCC3)ccc2O[C@@H](C)CCCCO[C@H]1CN(C)C(=O)c1ccccc1 | inactive | inactive | inactive
C[C@H]1CCCCO[C@H](CN(C)S(=O)(=O)c2ccc(Cl)cc2)[C@@H](C)CN([C@@H](C)CO)C(=O)c2cc(NS(=O)(=O)c3ccc(Cl)cc3)ccc2O1 | inactive | inactive | inactive
CC(=O)N[C@H]1[C@H](O/N=[N+](\[O-])N2CCCC2)O[C@H](CO)[C@@H](O)[C@@H]1O | inactive | inactive | inactive
C[C@@H]1CCCCO[C@@H](CN(C)Cc2ccc(Cl)c(Cl)c2)[C@H](C)CN([C@H](C)CO)C(=O)c2cc(NS(=O)(=O)c3ccccc3)ccc2O1 | active | active | inactive
Cc1ccc(S(=O)(=O)Nc2ccc3c(c2)C(=O)N([C@@H](C)CO)C[C@@H](C)[C@H](CN(C)S(=O)(=O)c2ccc(C)cc2)OCCCC[C@@H](C)O3)cc1 | inactive | active | inactive
C[C@@H]1CN([C@@H](C)CO)C(=O)c2cc(-c3ccncc3)cnc2O[C@H]1CN(C)Cc1ccc(Oc2ccccc2)cc1 | inactive | inactive | inactive
C[C@H]1CN([C@@H](C)CO)C(=O)Cc2cc(NC(=O)Nc3ccc4c(c3)OCO4)ccc2O[C@H]1CN(C)Cc1ccc(Oc2ccccc2)cc1 | inactive | inactive | inactive
Nc1ccn([C@H]2CC[C@@H](CO)O2)c(=O)n1 | inactive | inactive | inactive
O=C(N[C@H]1CC[C@@H](CC(=O)N2CCOCC2)O[C@H]1CO)c1ccc2c(c1)OCO2 | inactive | inactive | inactive
C/C=C/c1ccc2c(c1)O[C@@H](CN(C)S(=O)(=O)c1ccc(F)cc1)[C@@H](C)CN([C@@H](C)CO)S2(=O)=O | inactive | inactive | inactive

SMILES | cytotoxicity call (HSkMC) | cytotoxicity call (HepG2) | growth inhibition call (S. aureus RN4220)
Cc1noc(C)c1NC(=O)Nc1ccc2c(c1)C(=O)N([C@H](C)CO)C[C@H](C)[C@@H](CN(C)C(=O)c1ccccc1)OCCCC[C@H](C)O2 | inactive | inactive | inactive
C[C@@H]1CN([C@@H](C)CO)C(=O)c2cc(NS(=O)(=O)c3ccccc3)ccc2O[C@H]1CN(C)S(=O)(=O)c1ccc(F)cc1 | inactive | inactive | inactive
COc1ccc(S(=O)(=O)N(C)C[C@H]2OCCCC[C@@H](C)Oc3ccc(NS(=O)(=O)c4cn(C)cn4)cc3C(=O)N([C@@H](C)CO)C[C@@H]2C)cc1 | inactive | inactive | inactive
CCCS(=O)(=O)N1CCC[C@H](C(=O)NC)C1 | inactive | inactive | inactive
CN1C[C@]2(CCN(C(=O)c3cn(CCN4CCNCC4)nn3)C2)OC1=O | inactive | inactive | inactive
C[C@H]1CN([C@@H](C)CO)C(=O)Cc2cc(NC(=O)Nc3ccccc3)ccc2O[C@@H]1CN(C)Cc1ccc(Oc2ccccc2)cc1 | active | active | inactive
COc1ccc(CCNC(=O)[C@@]2(Sc3ccc(C)cc3)CC(=O)N(C(C)C)[C@@H]2c2ccc(CO)cc2)cc1 | inactive | inactive | inactive
C[C@H]1CN([C@@H](C)CO)C(=O)c2cc(C#CC3CCCCC3)cnc2O[C@@H]1CN(C)C(=O)c1ccncc1 | inactive | inactive | inactive
O=C(N/N=C/[C@H](O)[C@H](O)[C@@H](O)[C@@H](O)CO)c1ccccn1 | inactive | inactive | inactive
Cc1noc(C)c1NC(=O)Nc1ccc2c(c1)C(=O)N([C@@H](C)CO)C[C@@H](C)[C@@H](CN(C)Cc1ccccc1)OCCCC[C@H](C)O2 | inactive | inactive | inactive
COc1ccc(S(=O)(=O)N(C)C[C@H]2Oc3ccc(NS(=O)(=O)c4ccc(F)cc4)cc3CC(=O)N([C@H](C)CO)C[C@@H]2C)cc1 | inactive | inactive | inactive
Cc1noc(C)c1NC(=O)Nc1ccc2c(c1)CC(=O)N([C@H](C)CO)C[C@@H](C)[C@H](CN(C)S(=O)(=O)c1ccccc1)O2 | inactive | inactive | inactive
C[C@@H]1CCCCO[C@@H](CN(C)Cc2ccc(Cl)c(Cl)c2)[C@@H](C)CN([C@@H](C)CO)C(=O)c2cc(NS(=O)(=O)c3ccc(F)cc3)ccc2O1 | inactive | inactive | inactive
CC(C)CC#Cc1cnc2c(c1)C(=O)N([C@@H](C)CO)C[C@@H](C)[C@H](CN(C)C(=O)c1ccc3c(c1)OCO3)O2 | inactive | inactive | inactive
CC(C)NC(=O)Nc1cccc2c1O[C@H](CN(C)Cc1ccc(-c3ccccc3)cc1)[C@@H](C)CN([C@H](C)CO)C2=O | inactive | inactive | inactive
C[C@@H]1CN([C@@H](C)CO)C(=O)Cc2cc(NC(=O)Cc3cn(C)c4ccccc34)ccc2O[C@@H]1CN(C)Cc1ccc(C(=O)Nc2ccccc2N)cc1 | inactive | inactive | inactive
O=C(C[C@H]1C=C[C@H](NC(=O)Cc2ccccn2)[C@H](CO)O1)NCCCN1CCOCC1 | inactive | inactive | inactive
O=C(C[C@@H]1CC[C@H]2[C@@H](COC[C@@H](O)CN2S(=O)(=O)c2cccc(Cl)c2)O1)NCCCN1CCOCC1 | inactive | inactive | inactive
COc1ccc(S(=O)(=O)N(C)C[C@@H]2Oc3c(NS(=O)(=O)c4c(C)noc4C)cccc3C(=O)N([C@H](C)CO)C[C@@H]2C)cc1 | inactive | inactive | inactive
Cc1noc(C)c1S(=O)(=O)Nc1ccc2c(c1)C(=O)N([C@@H](C)CO)C[C@@H](C)[C@H](CN(C)Cc1ccc(C(F)(F)F)cc1)OCCCC[C@H](C)O2 | inactive | inactive | inactive
C[C@H](CO)N1C[C@H](C)[C@H](CN(C)Cc2ccc(C(F)(F)F)cc2)OCCCC[C@H](C)Oc2ccc(NS(=O)(=O)c3ccc(F)cc3)cc2C1=O | inactive | inactive | inactive
C[C@H]1CN([C@@H](C)CO)C(=O)Cc2cc(NC(=O)Cc3cn(C)c4ccccc34)ccc2O[C@@H]1CN(C)Cc1ccc(-c2ccccc2)cc1 | inactive | inactive | inactive
C[C@@H]1CN([C@H](C)CO)C(=O)c2cc(NC(=O)Nc3ccc(F)cc3)ccc2O[C@@H](C)CCCCO[C@H]1CN(C)Cc1ccc2c(c1)OCO2 | inactive | active | inactive
COCC(=O)Nc1ccc2c(c1)OC[C@@H](C)N(Cc1ccccc1F)C[C@@H](C)[C@@H](OC)CN(C)C2=O | inactive | inactive | inactive
C[C@@H]1CCCCO[C@@H](CN(C)CC2CCCCC2)[C@H](C)CN([C@@H](C)CO)C(=O)c2cc(NC(=O)CCCN(C)C)ccc2O1 | inactive | inactive | inactive
C[C@@H]1CCCCO[C@H](CN(C)Cc2ccccc2)[C@@H](C)CN([C@H](C)CO)C(=O)c2cc(NS(=O)(=O)c3ccccc3)ccc2O1 | inactive | inactive | inactive
